The values below come from PMC4274898.

Holding throughout (test): two-hybrid; S. cerevisiae AH109 co-transformed with pGBKT7-ARF (bait) and pGADT7-Aux/IAA (prey); growth on SD/-Ade-His-Leu-Trp against SD/-Leu/-Trp; at least 10 independent colonies; serial dilutions for strength
The target in experiment [1] is T1, ARF4 (Arabidopsis thaliana) (UniProt Q9ZTX9).
T1 sequence: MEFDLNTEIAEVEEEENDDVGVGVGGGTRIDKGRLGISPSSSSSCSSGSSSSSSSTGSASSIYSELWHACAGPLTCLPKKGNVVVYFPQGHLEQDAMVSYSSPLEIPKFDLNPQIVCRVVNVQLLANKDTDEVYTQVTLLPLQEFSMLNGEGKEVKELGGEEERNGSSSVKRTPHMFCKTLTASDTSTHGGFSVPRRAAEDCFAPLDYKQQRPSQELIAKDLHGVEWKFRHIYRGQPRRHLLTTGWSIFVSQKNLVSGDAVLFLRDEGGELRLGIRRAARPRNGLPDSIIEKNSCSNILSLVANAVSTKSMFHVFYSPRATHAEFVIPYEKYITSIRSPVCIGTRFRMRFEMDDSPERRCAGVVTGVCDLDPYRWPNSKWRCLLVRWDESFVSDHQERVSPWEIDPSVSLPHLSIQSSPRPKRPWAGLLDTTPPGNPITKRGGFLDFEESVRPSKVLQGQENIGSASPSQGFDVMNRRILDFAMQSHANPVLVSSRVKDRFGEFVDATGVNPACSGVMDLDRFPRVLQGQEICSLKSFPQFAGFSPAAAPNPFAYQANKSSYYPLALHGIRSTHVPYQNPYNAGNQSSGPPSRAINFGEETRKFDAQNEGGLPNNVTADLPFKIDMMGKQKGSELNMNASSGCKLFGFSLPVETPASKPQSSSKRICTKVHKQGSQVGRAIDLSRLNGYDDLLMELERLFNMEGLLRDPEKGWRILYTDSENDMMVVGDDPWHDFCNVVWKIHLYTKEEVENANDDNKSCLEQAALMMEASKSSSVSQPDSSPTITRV

Experiment [2] deals with T2, ARF7 (Arabidopsis thaliana) (UniProt P93022).
T2 sequence: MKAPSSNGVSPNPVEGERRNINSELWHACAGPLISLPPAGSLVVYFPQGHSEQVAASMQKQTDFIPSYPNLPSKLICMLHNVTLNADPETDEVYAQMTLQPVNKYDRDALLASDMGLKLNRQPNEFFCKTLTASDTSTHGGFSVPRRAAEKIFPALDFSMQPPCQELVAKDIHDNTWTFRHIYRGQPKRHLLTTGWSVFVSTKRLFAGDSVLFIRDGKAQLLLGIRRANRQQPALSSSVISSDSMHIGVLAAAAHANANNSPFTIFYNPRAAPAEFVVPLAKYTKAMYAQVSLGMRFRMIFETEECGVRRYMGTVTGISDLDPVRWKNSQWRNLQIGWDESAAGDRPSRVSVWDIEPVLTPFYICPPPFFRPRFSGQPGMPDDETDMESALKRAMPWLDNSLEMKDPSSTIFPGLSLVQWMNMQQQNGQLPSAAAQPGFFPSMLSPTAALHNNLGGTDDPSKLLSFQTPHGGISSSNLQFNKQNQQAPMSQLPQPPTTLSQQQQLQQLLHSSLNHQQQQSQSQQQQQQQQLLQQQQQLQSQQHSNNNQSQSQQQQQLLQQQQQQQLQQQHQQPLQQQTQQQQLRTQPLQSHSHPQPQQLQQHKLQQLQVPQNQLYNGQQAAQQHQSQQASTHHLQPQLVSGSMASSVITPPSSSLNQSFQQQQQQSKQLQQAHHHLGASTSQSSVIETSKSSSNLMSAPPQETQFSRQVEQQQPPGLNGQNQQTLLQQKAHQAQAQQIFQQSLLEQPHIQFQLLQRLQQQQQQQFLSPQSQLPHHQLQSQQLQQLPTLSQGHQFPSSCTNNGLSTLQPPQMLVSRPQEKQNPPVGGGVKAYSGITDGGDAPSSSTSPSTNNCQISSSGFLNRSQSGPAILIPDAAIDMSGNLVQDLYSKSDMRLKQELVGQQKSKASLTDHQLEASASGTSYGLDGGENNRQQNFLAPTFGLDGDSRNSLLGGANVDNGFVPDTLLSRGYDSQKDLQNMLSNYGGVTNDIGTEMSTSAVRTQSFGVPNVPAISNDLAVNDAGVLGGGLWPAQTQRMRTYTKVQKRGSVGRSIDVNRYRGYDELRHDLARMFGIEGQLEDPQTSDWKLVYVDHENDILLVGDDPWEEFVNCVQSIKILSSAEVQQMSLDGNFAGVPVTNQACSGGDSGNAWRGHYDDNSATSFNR

Experiment [3] concerns the target T3, ARF3 (Arabidopsis thaliana) (UniProt O23661).
T3 sequence: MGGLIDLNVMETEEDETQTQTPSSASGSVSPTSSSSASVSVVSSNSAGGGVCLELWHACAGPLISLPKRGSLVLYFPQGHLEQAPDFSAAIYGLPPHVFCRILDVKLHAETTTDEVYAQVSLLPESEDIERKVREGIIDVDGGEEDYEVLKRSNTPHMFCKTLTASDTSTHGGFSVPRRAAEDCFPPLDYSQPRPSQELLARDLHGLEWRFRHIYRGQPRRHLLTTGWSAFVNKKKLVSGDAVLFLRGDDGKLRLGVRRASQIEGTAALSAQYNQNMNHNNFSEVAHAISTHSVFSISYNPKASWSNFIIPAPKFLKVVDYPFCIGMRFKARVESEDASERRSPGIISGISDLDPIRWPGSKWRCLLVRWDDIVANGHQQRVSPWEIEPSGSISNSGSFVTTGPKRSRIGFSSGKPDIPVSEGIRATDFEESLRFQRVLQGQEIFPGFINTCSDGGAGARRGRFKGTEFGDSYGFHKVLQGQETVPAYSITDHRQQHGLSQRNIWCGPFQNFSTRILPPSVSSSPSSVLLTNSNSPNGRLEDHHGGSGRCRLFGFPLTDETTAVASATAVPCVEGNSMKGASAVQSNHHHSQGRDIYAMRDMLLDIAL

These are yes or no findings as the source states them, for the method shown. Some entries that bind do so weakly or less than the wild type.

B1: Aux/IAA5 (protein, UniProt P33078 1-163)
chain: MANESNNLGLEITELRLGLPGDIVVSGESISGKKRASPEVEIDLKCEPAKKSQVVGWPPVCSYRRKNSLERTKSSYVKVSVDGAAFLRKIDLEMYKCYQDLASALQILFGCYINFDDTLKESECVPIYEDKDGDWMLAGDVPWEMFLGSCKRLRIMKRSCNRG
B1: the binding entry in experiment [1] is “binds”; in experiment [2], “binds”; in experiment [3], “no binding”.

B2: Aux/IAA4 (protein, UniProt P33077 1-186)
chain: MEKVDVYDELVNLKATELRLGLPGTEETVSCGKSNKRVLPEATEKEIESTGKTETASPPKAQIVGWPPVRSYRKNNVQTKKSESEGQGNYVKVSMDGAPYLRKIDLTMYKQYPELMKSLENMFKFSVGEYFEREGYKGSDFVPTYEDKDGDWMLVGDVPWEMFVSSCKRLRIMKGSEVKGLGCGGL
With B2, the binding entry in experiment [1] is “binds”; in experiment [2], “binds”; in experiment [3], “no binding”.

B3: Aux/IAA33 (protein, UniProt Q9FKM7 1-171)
chain: MNSFEPQSQDSLQRRFHQDNSTTQQPRDTTTPFIPKPASKNHNNSNSSSGAAGRSFQGFGLNVEDDLVSSVVPPVTVVLEGRSICQRISLDKHGSYQSLASALRQMFVDGADSTDDLDLSNAIPGHLIAYEDMENDLLLAGDLTWKDFVRVAKRIRILPVKGNTRQVKRNE
B3: the binding entry in experiment [1] is reported as “binds”; in experiment [2], “binds”; in experiment [3], “no binding”.

B4: Aux/IAA3 (protein, UniProt Q38822 1-189)
chain: MDEFVNLKETELRLGLPGTDNVCEAKERVSCCNNNNKRVLSTDTEKEIESSSRKTETSPPRKAQIVGWPPVRSYRKNNIQSKKNESEHEGQGIYVKVSMDGAPYLRKIDLSCYKGYSELLKALEVMFKFSVGEYFERDGYKGSDFVPTYEDKDGDWMLIGDVPWEMFICTCKRLRIMKGSEAKGLGCGV
As for B4, the binding result in experiment [1] is reported as “binds”; in experiment [2], “binds”; in experiment [3] it was “no binding”.

B5: Aux/IAA34 (protein, UniProt Q9C5X0 1-185)
chain: MYCSDPPHPLHLVASDKQQKDHKLILSWKKPTMDSDPLGVFPNSPKYHPYYSQTTEFGGVIDLGLSLRTIQHEIYHSSGQRYCSNEGYRRKWGYVKVTMDGLVVGRKVCVLDHGSYSTLAHQLEDMFGMQSVSGLRLFQMESEFCLVYRDEEGLWRNAGDVPWNEFIESVERLRITRRNDAVLPF
For B5, the values for the binding entry in experiment [1], in experiment [2] and in experiment [3] were “binds”, “binds” and “no binding”, respectively.

B6: Aux/IAA31 (protein, UniProt Q8H174 1-158)
chain: MEVSNSCSSFSSSSVDSTKPSPSESSVNLSLSLTFPSTSPQREARQDWPPIKSRLRDTLKGRRLLRRGDDTSLFVKVYMEGVPIGRKLDLCVFSGYESLLENLSHMFDTSIICGNRDRKHHVLTYEDKDGDWMMVGDIPWDMFLETVRRLKITRPERY
With B6, the results for the binding result in experiment [1], in experiment [2] and in experiment [3] were “binds”, “binds” and “no binding”, respectively.
